The source gives no read counts; variants with many changes may rest on few reads.
B1: LINE1-mini (parent)
chain: GGCAGAGCUCAACACAGCGUGGCAAAGUGGCUGUGGCUAGACUGCC

Variants of: B1
Assay: self-cleavage, relative activity (ratio to wild type); higher = more cleavage; in vitro, sequencing; the parent is a self-cleaving ribozyme

**Q.** Which self-cleavage does the source give for GGCAGAGCUCAACACAGCGUGGCAAAGUGGGUGUUGCUGGACUGCC here?
**A.** Its self-cleavage is 0.03.

**Q.** Which self-cleavage does the source give for GGCAGAGCUCAACACAGCGUGGCAAAGUGGCAGUGGCUAGACCGCU here?
**A.** Its self-cleavage is 0.

**Q.** With GGCAGAGCUCAACACAGCGUGGCAAAGUGUCUGUGGCUAGACUGUA as the variant, how does the self-cleavage read?
**A.** Its self-cleavage is 0.12.

**Q.** Which self-cleavage does the source give for GGCAGAGCUCAACACAGCGUGGCAAAGUGGCAGUGACUAUACUGCC here?
**A.** The self-cleavage was 0.17.

**Q.** Which self-cleavage does the source give for GGCAGAGCUCAACACAGCGUGGCAAAGUGGCAGGGGCUAGAAUGCC here?
**A.** The self-cleavage was 0.02.

**Q.** Which self-cleavage does the source give for GGCAGAGCUCAACACAGCGUGGCAAAGUGUCCGUCCCUAGACUGCC here?
**A.** The self-cleavage was 0.03.

**Q.** For GGCAGAGCUCAACACAGCGUGGCAAAGUGACUGUGUAUAGACUGCC, which self-cleavage is on record?
**A.** Its self-cleavage is 0.08.

**Q.** Which self-cleavage does the source give for GGCAGAGCUCAACACAGCGUGGCAAAGUGGGUGGGGCUAGAAUGCC here?
**A.** The self-cleavage was 0.02.

**Q.** For GGCAGAGCUCAACACAGCGUGGCAAAGUGACUGUGCCAAGACUGCC, which self-cleavage is on record?
**A.** Its self-cleavage is 0.13.

**Q.** With GGCAGAGCUCAACACAGCGUGGCAAAGUGGUUGAGAGUAGACUGCC as the variant, how does the self-cleavage read?
**A.** The self-cleavage was 0.01.

**Q.** With GGCAGAGCUCAACACAGCGUGGCAAAGUGGAUGUGGCUUGAAGGCC as the variant, how does the self-cleavage read?
**A.** Its self-cleavage is 0.01.

**Q.** For GGCAGAGCUCAACACAGCGUGGCAAAGUGGACGGGGCUAGACUGCC, which self-cleavage is on record?
**A.** Its self-cleavage is 0.04.

**Q.** Which self-cleavage does the source give for GGCAGAGCUCAACACAGCGUGGCAAAGUGCCUGUGACUAGGCUGCC here?
**A.** Its self-cleavage is 0.12.

**Q.** For GGCAGAGCUCAACACAGCGUGGCAAAGUGACAGUGGCUAUACUGCC, which self-cleavage is on record?
**A.** The self-cleavage was 0.03.

**Q.** Which self-cleavage does the source give for GGCAGAGCUCAACACAGCGUGGCAAAGUGCCUGUAGCUAGGCUGCC here?
**A.** The self-cleavage was 0.07.

**Q.** Which self-cleavage does the source give for GGCAGAGCUCAACACAGCGUGGCAAAGUGCACGUGGCUAGACUGCC here?
**A.** Its self-cleavage is 0.06.

**Q.** For GGCAGAGCUCAACACAGCGUGGCAAAGUGUCCGUGGCUCGACUGCC, which self-cleavage is on record?
**A.** The self-cleavage was 0.03.

**Q.** With GGCAGAGCUCAACACAGCGUGGCAAAGUGGAUGUGGCUAGAAAGUC as the variant, how does the self-cleavage read?
**A.** The self-cleavage was 0.05.

**Q.** Which self-cleavage does the source give for GGCAGAGCUCAACACAGCGUGGCAAAGUGUCUGUGGCUAGCCUGCG here?
**A.** Its self-cleavage is 0.01.

**Q.** For GGCAGAGCUCAACACAGCGUGGCAAAGUGCCUGUGGCUAAAUUGCC, which self-cleavage is on record?
**A.** The self-cleavage was 0.15.

**Q.** With GGCAGAGCUCAACACAGCGUGGCAAAGUGGCAGUGACUUGACUGCC as the variant, how does the self-cleavage read?
**A.** Its self-cleavage is 0.03.

**Q.** For GGCAGAGCUCAACACAGCGUGGCAAAGUGUCAGUCGCUAGACUGCC, which self-cleavage is on record?
**A.** The self-cleavage was 0.04.

**Q.** For GGCAGAGCUCAACACAGCGUGGCAAAGUGGAUGUGGCUCGAAUGCC, which self-cleavage is on record?
**A.** Its self-cleavage is 0.

**Q.** With GGCAGAGCUCAACACAGCGUGGCAAAGUGGGUGUGAAUAGACUGCC as the variant, how does the self-cleavage read?
**A.** The self-cleavage was 0.03.

**Q.** Which self-cleavage does the source give for GGCAGAGCUCAACACAGCGUGGCAAAGUGCCUGUGGGUAGACUGCA here?
**A.** The self-cleavage was 0.04.

**Q.** For GGCAGAGCUCAACACAGCGUGGCAAAGUGGAUAAAGCUAGCAAGCG, which self-cleavage is on record?
**A.** Its self-cleavage is 0.03.

**Q.** With GGCAGAGCUCAACACAGCGUGGCAAAGUGGCAGUGUCCAGACUGUC as the variant, how does the self-cleavage read?
**A.** The self-cleavage was 0.01.

**Q.** For GGCAGAGCUCAACACAGCGUGGCAAAGUGGUUUUGGCUAGACUUCC, which self-cleavage is on record?
**A.** The self-cleavage was 0.04.

**Q.** Which self-cleavage does the source give for GGCAGAGCUCAACACAGCGUGGCAAAGUGGUUGCGGCCAGACUGCC here?
**A.** Its self-cleavage is 0.03.

**Q.** Which self-cleavage does the source give for GGCAGAGCUCAACACAGCGUGGCAAAGUGCCUGUGGCUCGGCUGCC here?
**A.** Its self-cleavage is 0.11.

**Q.** With GGCAGAGCUCAACACAGCGUGGCAAAGUGGCAGUGGUUAUACUGCC as the variant, how does the self-cleavage read?
**A.** The self-cleavage was 0.02.

**Q.** For GGCAGAGCUCAACACAGCGUGGCAAAGUGGUUGUAACUAGGCUGCU, which self-cleavage is on record?
**A.** Its self-cleavage is 0.02.

**Q.** Which self-cleavage does the source give for GGCAGAGCUCAACACAGCGUGGCAAAGUGGCGGUGGCUAGAACGCA here?
**A.** The self-cleavage was 0.05.

**Q.** With GGCAGAGCUCAACACAGCGUGGCAAAGUGGCGGUGGCUGGACUGAC as the variant, how does the self-cleavage read?
**A.** The self-cleavage was 0.09.

**Q.** Which self-cleavage does the source give for GGCAGAGCUCAACACAGCGUGGCAAAGUGGUUGUGGCUAGCCUGCU here?
**A.** Its self-cleavage is 0.01.

**Q.** Which self-cleavage does the source give for GGCAGAGCUCAACACAGCGUGGCAAAGUGGGUGUGGCAAGAUUGCC here?
**A.** Its self-cleavage is 0.12.

**Q.** Which self-cleavage does the source give for GGCAGAGCUCAACACAGCGUGGCAAAGUGGCAGUUGCUAGACUGCA here?
**A.** The self-cleavage was 0.07.

**Q.** Which self-cleavage does the source give for GGCAGAGCUCAACACAGCGUGGCAAAGUGGGUCUGGCUAUACUCCC here?
**A.** Its self-cleavage is 0.03.

**Q.** With GGCAGAGCUCAACACAGCGUGGCAAAGUGGUUGUGGCUUGACGUCC as the variant, how does the self-cleavage read?
**A.** Its self-cleavage is 0.02.

**Q.** For GGCAGAGCUCAACACAGCGUGGCAAAGUGUCGGUAGCUAGACUGCC, which self-cleavage is on record?
**A.** Its self-cleavage is 0.03.

**Q.** With GGCAGAGCUCAACACAGCGUGGCAAAGUGUCUGUGGCUAGCCUUCC as the variant, how does the self-cleavage read?
**A.** Its self-cleavage is 0.04.

**Q.** With GGCAGAGCUCAACACAGCGUGGCAAAGUGCCUGAGGCCAGACUGCC as the variant, how does the self-cleavage read?
**A.** Its self-cleavage is 0.03.

**Q.** Which self-cleavage does the source give for GGCAGAGCUCAACACAGCGUGGCAAAGUGUCUGGGGCUUCACUGCC here?
**A.** Its self-cleavage is 0.01.

**Q.** Which self-cleavage does the source give for GGCAGAGCUCAACACAGCGUGGCAAAGUGGCAGUAGCUAUACUGCC here?
**A.** The self-cleavage was 0.05.

**Q.** With GGCAGAGCUCAACACAGCGUGGCAAAGUGGAGGUAGCUAGACUGCC as the variant, how does the self-cleavage read?
**A.** The self-cleavage was 0.05.

**Q.** With GGCAGAGCUCAACACAGCGUGGCAAAGUGGCAGAGACUAGACUGCC as the variant, how does the self-cleavage read?
**A.** The self-cleavage was 0.03.

**Q.** With GGCAGAGCUCAACACAGCGUGGCAAAGUGCCUGAGGCUAGACAGCC as the variant, how does the self-cleavage read?
**A.** Its self-cleavage is 0.31.

**Q.** With GGCAGAGCUCAACACAGCGUGGCAAAGUGGCAGUGGUAAGACUGCC as the variant, how does the self-cleavage read?
**A.** The self-cleavage was 0.07.

**Q.** Which self-cleavage does the source give for GGCAGAGCUCAACACAGCGUGGCAAAGUGUGUGUCGCUAGACUGCC here?
**A.** Its self-cleavage is 0.08.

**Q.** Which self-cleavage does the source give for GGCAGAGCUCAACACAGCGUGGCAAAGUGGUUGUUGCUAGAUUGAC here?
**A.** Its self-cleavage is 0.

**Q.** With GGCAGAGCUCAACACAGCGUGGCAAAGUGCCUCUGGCUAGACUCCC as the variant, how does the self-cleavage read?
**A.** The self-cleavage was 0.04.

**Q.** With GGCAGAGCUCAACACAGCGUGGCAAAGUGGGUGUGGCUAUACUGCA as the variant, how does the self-cleavage read?
**A.** Its self-cleavage is 0.11.

**Q.** For GGCAGAGCUCAACACAGCGUGGCAAAGUGGCCGUGGACAGACUGUC, which self-cleavage is on record?
**A.** The self-cleavage was 0.

**Q.** With GGCAGAGCUCAACACAGCGUGGCAAAGUGGGUGUGGCUAGCCUGUC as the variant, how does the self-cleavage read?
**A.** Its self-cleavage is 0.05.

**Q.** For GGCAGAGCUCAACACAGCGUGGCAAAGUGGAUGUGACUAGAAUGCC, which self-cleavage is on record?
**A.** Its self-cleavage is 0.04.

**Q.** With GGCAGAGCUCAACACAGCGUGGCAAAGUGUCUGUGGAUAGACCGCC as the variant, how does the self-cleavage read?
**A.** Its self-cleavage is 0.02.

From the RNAGym collection of RNA variant scans (doi:10.7554/elife.90254)
